{"source": "paper PMC11402599", "about": "“Structural basis of TRPV1 modulation by endogenous bioactive lipids” (Nature Structural & Molecular Biology, 2024)", "proteins": {"B1": {"name": "Recombinant minimal functional rat TRPV1 ([…] and […]) (domain or fragment)", "chain": "not shown", "notes": "TRPV1, rat, minimal functional construct: […] and […] ([…] left out); TEV protease was added to the nanodisc mixture for 3 h before size-exclusion chromatography; also called minimal TRPV1; transient receptor potential cation channel subfamily V member 1"}}, "molecular_target": "the molecule itself", "assay": "cryo-EM structure; TRPV1 purified and reconstituted into MSP2N2 lipid nanodiscs (soybean polar lipids or defined lipids); empty pocket, or with PI-Br4, PIP2-Br4, diC8-PIP2 or LPA; grids prepared at 4, 15 or 25 °C; C4, C2 or C1 symmetry", "data": [{"protein": "B1", "values": [{"measurement": "stoichiometry N", "value": 4}]}]}
